Read counts are not given, so values of variants with three or more changes are uncertain.
B1: OR4K15 (parent)
chain: GUUAACGGUCAUAGGCCAUGGAAACUAGGAGCACCAUUUCGCUGCCAGUGAAGAAAUGAACAAAGAAAAUCUGGGCCAGGCAGGCAUCAAAAGAAAUAGUCUUGCGCUCAACCAGAAAGUCUGUAAUCAUUUUAAGGGUA

Variants of: B1
Test: self-cleavage, relative activity (ratio to wild type); higher = more cleavage; in vitro, sequencing; the parent is a self-cleaving ribozyme
With GUUAACGGUCAUAGGCCAUGGAAACUAGGGGCACCUUUUCGCUGCCAGUGAAGAAAUGAACAAAGAAAAUCUGGGCCAGGCAGGCAUCAAAAGAAGUAGUCUUGCGCUCAACCAGAAAGUCUGUAAUCAUUUUAAGGGUA [A30G A36U A96G] the self-cleavage was 1.82. Variant GAUAACGGCCAUAGGCCAUGGAAGCUAGGAGCACCACUUUGCUGCCAGUGAUGAAAUGAACAAAGAAAAUCUGGGCCAGGCAGGCAUCAAAAGAAAUAGUCUUGCGCUCAACCAGAAAGUCUGUAAUCAUUUUAAGGGCA [U2A U9C A24G U37C C40U A52U U139C] has a self-cleavage of 0.65. With GUUAACGGUCAUAGGCCAUGGAAACUAGGAGCACCAUUUCGCUGCCAGUGAAGAAAUGAACAAAGAAAAUCUGGGCCAGGCAGGCAUCAAAAGAAAUAGUCUUGCGCACAACCAGAGAGUCUGUAAUCAUUUUGAGGGUA [U108A A117G A134G] the self-cleavage was 0.01. GUUAACGGUCAUAGGCCAUGGAAACUAGGAGCACCAUUUCGCUGCCAGUGUAGAGAUGGACAAAGAAAAUCUGGGCCAGGCAGGCAUCAAAAGAAAUAGUCUUGCGCUCAACCAGAAAGUCUGUAAUCAUUUUAAGGGUA [A51U A55G A59G] showed a self-cleavage of 1.27. In the case of GUUAACGGUCAUAGGCCACGGAAACUAGGAGCACCAUCUCGCUGCCAGUGAAGAAAUGAACAAAGAAAAUCUGGGCCAGGCAGGCACCAAAAGAAAUAGUCUUGCGCUCAACCAGAAAGUCUGUAAUCAUUUUAAGGGUA [U19C U38C U87C], the self-cleavage is reported as 0.69. With GUUAACGGUCAUAGGCCACGGAGACUAGGAGCACCACUUCGCUGCCAGUGAAGAAAUGAACGAAGAAAAUCUGGGCCAGGCAGGCAUCAAAAGAAAUAGUCUUGCGCUCAACCAGAAAGUCUGUAAUCAUUUUAAGGGUA [U19C A23G U37C A62G] the self-cleavage was 1.57. Work on GUUAACGGUCAUAGGCCAUGGAAACUAGGAGCACCACUUCGCUGCCAGUGUAGAAAGGAACAAAGAAAAUCUGGGCCAGGCAGGCAUCAAAAGAAAUAGUCUUGCGCUCAACCAGGAAGUCUGUAAUCAUUUUAAGGGUA [U37C A51U U57G A116G] yielded a self-cleavage of 0.36. For GUUAACGGUCAUAGGCCAUGGAAACUAGGAGCACCAUUUCGCCGCCAGUGGAGAAAUGAACAAUGAAAAUCUGGGCCAGGCAGGCAUCAAAAGAAAUAGUCUUGCGCUCAACCAGAAAGUCUGUAAUCAUUUUAAGGGUA [U43C A51G A64U], the self-cleavage was 0.63. With GUUAACGGUCAUAGGCCAUGGAAACUAGGAGCACCAUUUCGCUGCCAGUGAAGAAAUGAACAAAGGAAAUCUGGGCCAGGCAGGCAUCAAAAGAAAUAGUCUCGCGCGCAACCAGAAAGUCUGUAAUCAUUUUGAGGGUA [A66G U103C U108G A134G] the self-cleavage was 0.01. For GUUAACGGUCAUAGGCCAUGGAAACUAGGAGCACCAUUUCGCUGCCAGUGAAGAAAAGAACAAAGAAAAUCUGGGCCAGGCAGGCAUCGAAAGAAACAGUCUCGCGCUCAACCAGAAAGUCUGUGAUCAUCUUAAGGGUA [U57A A89G U97C U103C A125G U131C], the self-cleavage was 0.02. Work on GUUAACGGUCAUAGGCCUUGGAAACUAGGAGCACCAUUUCGCUGCCAGUGAAGAAAUGAACAAAGAAAAUCUGGGCCAGGCAGGCGUCAAAUGAAAUAGUCUUGCGCUCAACCAGAAAGUCUGUAAUCAUUUUAAGGGUA [A18U A86G A92U] yielded a self-cleavage of 0.86. Work on GUUAACGGUCAUAGGCCAUGGAAACUAGGAGCACCAUUUCGCUGCCAGUGAAGAAACGAACAAAGAAAAUCUGGGCCAGGCAGGCAUCAAAAGAAAUAGUCUUGCGCUCAACCAGAAAGUCUGUGAUCAUUUUAAGGGCA [U57C A125G U139C] yielded a self-cleavage of 0.28. Variant GUUAACGGUCAUAGGCCAUGGAAACUAGGAGCGCCAUUUCGCUGCCAGUGAAGAAAUGAACAAAGGAAAUCUGGGCCAGGCAGGCACCAAAAGAAAUAGUCUUGCGCUCAACCAGAAAGUCUGUAAUCAUUUUAAGGGUA [A33G A66G U87C] has a self-cleavage of 1.4. In the case of GUUAACGGUCAUAGGCCAUGGAAACUAGGAGCACCAUUUCGCUGCCAGUGAAGAAAUGAACAAAGAAAAUCUGGGCCAGGCAGGCAUCUAAAGAAAUAGUCUUGCGCUCAACCAGAAAGACUGUAAUCAUUUUACGGGUA [A89U U120A A135C], the self-cleavage is reported as 2.25. Variant GAUAACUGUCGUAGGCCAUGGAAACUAGGAGCACCAUUUCGCUGCCAGUGAAGAAAUGAACGAAGAAAGUCUGGGCCAGGCAGGCAUCAAAAGAAAUAGUCUUGCGCUCAACCAGAAAGUCUGUAAUCAUUUUAAGGGUA [U2A G7U A11G A62G A69G] has a self-cleavage of 1.07. GUUAACGGUCAUAGGCCAUGGGAACUAGGAGCACCAUUUCGCUGCCAGUGAAGAAAUGAACAAAGAAAAUCUGGGCCAGGCAGGCAUCAAAAGAAAUAGUCUUGCGCUCAACCAGAAAGUCUGUGGUCAUUCUAAGGGUA [A22G A125G A126G U132C] showed a self-cleavage of 0.46. For GUUAACGGUCAUAGGCCAUGGAAACUAGGAGCACCAUUUCGCUGCCAGUGAAGAAAUGAGCAAAGAAAAUCUGGGCCAGGCAGGCGUCAAAAGAAGUAGUCUUGCGCUCAACCAGAAAGUCUGUAAUCAUUUUAAGGGUA [A60G A86G A96G], the self-cleavage was 0.65. GUUAGCGGUCAUUGGCCGUGGAAACUAGGAGCACCAUUCCGCUGCCAGUGAAGGAAUGAACAAGGAAAAUCUGGGCCGGGCAGGCAUCAAAAGAAAUAGUCUUGCGCUCAACCAGAAAGUCUGUAAUCAUUUUAAGGGUA [A5G A13U A18G U39C A54G A64G A78G] gave a self-cleavage of 0.1. With GUUAACGGUCAUAGGCCAUGGAAACCAGGAGCACCAUUUCGCUGCCAGUGAAGAAAUGAACAAAGAAAAUCUGGGCCAGGCAGGCAUCAAGAGAAAUAGUCUUGCGCCCAACCAGAAAGUCUGUAAUCAUUUUAAGGGUA [U26C A91G U108C] the self-cleavage was 0.02. GAUAACGGUCAUAGGCCAUGGAAACUAGGAGCACCAUUUCGCUGCCAGUGAAGAAAUGAACAGAGAAAAUCUGGGCCAGGCAGGCAUCAAAAGAAAUAGUCUUGCGCCCUACCAGAAAGUCUGUAAUCAUUUUAAGGGUA [U2A A63G U108C A110U] showed a self-cleavage of 0.03.
